First the molecules themselves.
B1: LINE1-mini (parent)
chain: GGCAGAGCUCAACACAGCGUGGCAAAGUGGCUGUGGCUAGACUGCC

The source gives no read counts; variants with many changes may rest on few reads.

The data set covers variants of B1. Description: self-cleavage, relative activity (ratio to wild type); higher = more cleavage; in vitro, sequencing; the parent is a self-cleaving ribozyme.
For GGCAAUGCUCAACACAGCGUGGCAAAGUGGCUGUUGCUAGACUGCC, the self-cleavage came out at 0.11.

Consider GGCAAUGCUCUACACGGCGUGGCAAAGUGGCAGUGGCUCGACUGCC, for which the self-cleavage was 0.01.

As for GGCUGAGCUCAACACAGCGUGGCAAAGUGGCUGUGCCUGGACUGCC, the self-cleavage worked out at 0.04.

On to GGCAAGGCUCAACACAGCGCGGCAAAGUGGCUGUGGCUAGACUGCC, for which the self-cleavage was determined as 0.04.

Consider GGCUGAGCUCAACACAGCGUGGCAAAAUGGUUGUUGCUAGACUGCC, for which the self-cleavage stood at 0.12.

As to GGCUGAGCUCAACACAGCAUGGCAAAGUGGCUGUGGCUAGACUCCC, the self-cleavage amounted to 0.62.

Take GGCUGAGCUCAACACAGCUGGGCAAGGUGGCUGUGGCUAGGAAGCC: the self-cleavage is 0.03.

Regarding GGCAACGCUCAACACAGCGGGGCAAAGUGGCUGUGGCUAGACUGCC, the self-cleavage amounted to 0.08.

As for GGCAACCCUCAAAACAGGGUGGCAAAGUGGCUGUGGCUAGACUGCC, the self-cleavage worked out at 0.08.

Turning to GGCUGAGCUCAACACAGCGUAGUAAAGUCUCUGUGGCUAGACUGUA, the self-cleavage was found to be 0.05.

As for GGCAAAGCUCCACACAGCGUGGCAAAGUGGCUUUGGCUAGACUGCC, the self-cleavage is 0.02.

In the case of GGCUGAGCUCAACACAGCGUGGCAAACUGGCUGUGGCAGGUUUGCC, the self-cleavage turned out to be 0.05.

Take GGCAACGCUCAACACAGCGUCUCAAAGGUGCUGUGGCUAGUCUUUC: the self-cleavage came to 0.03.

Turning to GGCAAGGCUCAACAAAGCGUGGCAAAGUGGCUGUGGCUAGACUGCC, the self-cleavage came out at 0.09.

For the variant GGCUGAGCGCAACACAGGGUGGCAAAGUGGCUGUGGCUAGACUGCC, the self-cleavage was found to be 0.42.

As to GGCAAGGCUCAACAUAGCGUGGCAAAGUGGCUGAGGCUAGACUGCC, the self-cleavage came to 0.08.

With GGCUGAGCUCAACACAGCGUUGCGAAGUGGCUGUGGCUAGACUGCC, the self-cleavage was found to be 0.45.

GGCUGAGCUCAACACAGCGUUGCUAAGUGGCUGUGGCUAGACUGCC: the self-cleavage was 0.14.

Consider GGCAAGGCUCAACACGGUGUGGCAAAGUGGCUGUGGCUAGACUGGC, for which the self-cleavage is 0.36.

Consider GGCUGAGCUCAACACAGCGUGGCAAAGUGGCGGAGGGUAGACUGCC, for which the self-cleavage amounted to 0.05.

Turning to GGCUGAGCUCAACACAGCGUGGCAAAAUGGCAGUGGCUACACCGUC, the self-cleavage was 0.02.

Take GGCUGAGCUCAACACAGCGUGGCAAAGUCGCUGUGGCUCGACUGCC: the self-cleavage was found to be 0.02.

Take GGCUGAGCUCAACACAGCGUGGCAAAAUGGCUGUGGAGAAACUGCC: the self-cleavage was 0.01.

In the case of GGCAACGGUCAACACAGCUUGGCAAAGUGGCUGUGGCUAGACUGCC, the self-cleavage turned out to be 0.04.

Take GGCUGAGCUCAACACAGCGUGCCAGAGUGGCUGUGGUUAGACUGCC: the self-cleavage was 0.

For the variant GGCUGAGCACAACACAGCGUGGCAAAGUGGCUGUGGCUAGACUGCU, the self-cleavage is 0.27.

With GGCUGAGCUCAACACAGCGUGGCAAAGUGGCUGUAGCUAGUCUGCC, the self-cleavage amounted to 0.04.

Regarding GGCUGAGCUCAACACAGCGUCGUAAAGAGGUUGUGGCUAGACUGCC, the self-cleavage is 0.03.

GGCUGAGCCCAACACAGCGUGGCAAAGUGGCUGUGGCUAGGCUACC: the self-cleavage stood at 0.03.

As for GGCUGAGCUCAACACAGCGUGGCAAAGUGGCUGUGUCUAGACUACC, the self-cleavage came to 0.01.

With GGCUGAGCGCAAGACAGCGGGGCAAAGUGGCUGUGGCUAGACUGCC, the self-cleavage came to 0.07.

Regarding GGCAAAGCUCGACACAGCGUGGCAGAGUGGCUAUGGCUAAACUGCC, the self-cleavage was determined as 0.02.

As for GGCUGAGCUCAACACAGCGAGGCAAAGUGGCUGUGGCUAGACUGCU, the self-cleavage amounted to 0.06.

As for GGCUGAGCUCAACACAGCGUGGCAAAGUGGCAGUGGCUGGACUGCA, the self-cleavage came out at 0.09.

Consider GGCUGAGCUCAACACAGCCUGGCAAACUGGCUGUUGCUAGACUGCC, for which the self-cleavage came out at 0.11.

With GGCAAAGCUCCACACAGCGUGGCAAAGUGGCUGUGGUUAGACUGCU, the self-cleavage was 0.

GGCUGAGCUCAACACAGCGUGGCAAAGUAGCUGUGGCAACACAGCC: the self-cleavage is 0.02.

GGCUGAGCUCAACACAGCGUGGCAAAGCGGCCGUGGCUAGACUGCC: the self-cleavage was determined as 0.03.

With GGCUGAGCUCAACACAGCGUGGCAAACUGGCUAUGGCUAGACUGCC, the self-cleavage came out at 0.13.

For GGCUGAGCUCAACACAGCUUGGCAAAGUAGCUGUGGCAAGAUUGCC, the self-cleavage came out at 0.05.

Turning to GGCAAUGCUCAACAUAGCGUGGCAAAGUGCCUGUGGCUAGACUGCC, the self-cleavage came to 0.11.

GGCAAUGCUCAACACGGCGUGGCAAAGUGGCUGUGGCUAGACUGCC: the self-cleavage turned out to be 0.11.

For the variant GGCAAGGCUCAACACAGCACGUCAAAGUGGCUGUGGCUAGACUGCC, the self-cleavage was 0.02.

GGCAAGGCUCAACACAGCGUAGCAAAGUGGCUGUGGCUAGACUGCC: the self-cleavage came out at 0.05.

For GGCAAGGCUCAACACAGCGUUGCAAAGUGGCUGUGGCUAGACUGCC, the self-cleavage was 0.03.

For the variant GGCAACGCUCAACACAGCGUGGCAAAGUGGCUGUGGCUAGACUUCC, the self-cleavage is 0.08.

For the variant GGCUGAGCUCAACACAGCGUGACAAAGUGGCUGUGGCGAGUCUGCC, the self-cleavage stood at 0.04.

In the case of GGCUGAGCUCAACACAGCGGGGCAAAGUGGCUGUUGCUAGACUGCC, the self-cleavage is 0.02.

With GGCUGAGCUCAACACAUCGUGGCAAAGUACCUGUGGCUAGACUGCC, the self-cleavage was 0.03.

In the case of GGCAAUGCUCAACACAGCGAGGCAACGUGGCUGUGGCUAGACUGCC, the self-cleavage worked out at 0.07.

On to GGCUGAGCACAACACAGCGUGGCUAAGUGGCUGUGGCUAGACUGCC, for which the self-cleavage turned out to be 0.14.

GGCUGAGCGCAACAGAGCGUGACAAAGUGGCUGUGGCUAGACUGCC: the self-cleavage is 0.04.

For GGCUGAGCUCAACACAGCGUGGCAAAAUUGCUGUGGCUAGACUGCC, the self-cleavage came out at 0.22.

Turning to GGCUGAGCUCAACACAGCGUGGCAAAGUGGCUGUUGCUAGAGUGCC, the self-cleavage is 0.15.

For GGCAAGGCUCAACACAGCGUGCCAAGGUGCCAGCGGCUAGACUGCC, the self-cleavage came out at 0.02.

Consider GGCUGAGCUCAACACAGCUUGGCAAAGCGGCUGUGGCUAGACUGAC, for which the self-cleavage amounted to 0.02.
